# Experimental data taken from patent US20230407304A1, “USE OF MICRORNA INHIBITION TO PREVENT AND TREAT OSTEOARTHRITIS AND OTHER INFLAMMATORY DISEASES” (VIRGINIA COMMONWEALTH UNIVERSITY, priority 2020, published 2023).
# Assays:
# [1] = system: rat articular chondrocytes (rArCs); test: WNT/β-catenin agonist or antagonist treatment of rArCs with or without IL-1β; type: cell-based
# [2] = system: rat articular chondrocytes (rArCs); test: WNT/β-catenin agonist or antagonist treatment of rArCs with or without TNF-α; type: cell-based
# [3] = system: rat articular chondrocytes (rArCs); test: Stimulation of rArCs with IL-1β or TNF-α (total DNA, MMP-13, PGE2); type: cell-based; conditions: 10 ng/mL IL-1β or 5 and 10 ng/mL TNF-α, 24 hours
# Experimental: FIGS. […] (FIG. 6A) Total DNA was measured from the cell monolayer and (FIG. 6B) MMP-13, and (FIG. 6C) PGE2 proteins were measured from the conditioned media. Groups not sharing a letter (D, C, B or A over bar) are statistically significant using an alpha=0.05.
# (§1) Rat articular chondrocytes (rArCs) were isolated using a previously established protocol (see Scott, supra). Briefly, rArCs were isolated from femoral condyles and tibial plateaus from 100-125 g male Sprague Dawley rats. Cartilage was sterilely sliced from the articular surfaces using a surgical blade and placed in Dulbecco's modification of Eagle's medium with 1 g/L glucose, 50 U/mL penicillin and streptomycin (pen-strep) (DMEM). After removing DMEM, cartilage was incubated with 0.05% trypsin (20 mins, 37° C.), rinsed with DMEM (50 U/mL pen-strep, 20 mins, 37° C.), and then digested with sterile-filtered 0.03% collagenase type II solution (Worthington Biochemical, Lakewood, NJ) in Hank's balanced salt solution (16 hrs, 37° C.). Digestion was quenched with an equal volume of DMEM containing 10% fetal bovine serum (FBS) and 50 U/mL pen-strep, strained through a 40 μm strainer (Greiner Bio-one, North Carolina), spun down at 500×g for 10 mins and plated at a seeding density of 15,000 cells/cm^2. These cells are at passage 0. All experiments used cells at passage 1.
# (§2) rArCs were plated at a seeding density of 15,000 cells/cm^2 and fed with DMEM supplemented with 10% FBS and 50 U/mL pen-strep. Media were changed 24 hours after plating and then every 48 hours. After treatments described below, conditioned media were collected, centrifuged at 1,000×g for 10 mins to remove cellular debris, aliquoted, and stored at −80° C. until assayed. Cell monolayers were rinsed twice with 1 mL of 1×PBS, lysed in 500 μL of 0.05% Triton X-100, and frozen for later DNA analysis. MMP-13 (ANASpec, Fremont, CA) and PGE2 (R&D Systems) were measured in the conditioned media by a microplate reader at ex/em 490 nm/520 nm, and 450 nm absorbance, respectively, in accordance with the manufacturer's directions. Data were normalized to the DNA content of the cell monolayer. Cell layers were thawed, and mechanically lysed by ultrasonication (40V, 10s/well) (VCX-120; Vibra-cell, Newtown, CT) and DNA was measured using QuantiFluor dsDNE system kit (Promega, Madson, WI) and quantified on a fluorescence plate reader at ex/em 504 nm/531 nm.
# Data are from single experiments and are represented as mean±standard error (n=6 independent cultures per variable). Each experiment was repeated independently a minimum of two times to ensure the validity of the results. A one-way analysis of variance was performed followed by a two-tailed Tukey correction using an alpha equal to 0.05 as denoted by letters. […]
# [4] = system: rat articular chondrocytes (rArCs); test: miR mimic or inhibitor transfection of rArCs with or without TNF-α stimulation; type: cell-based; conditions: 14.5 nM mimic 24 hours, then with or without 10 ng/mL TNF-α 24 hours
# Experimental: FIGS. 7A-7F show assessment of miR-122 and miR-451 transfection or inhibition on TNF-α stimulated rat articular chondrocytes. rArCs were transfected at 60% confluence with miR-122, miR-451, miR-122-inhibitor (122-Inh), miR-451 inhibitor (451-Inh), or an empty vehicle (Lipo) for 24 hours followed by 24 hours with or without 10 ng/mL TNF-α stimulation. (FIG. 7A, 7D) Total DNA was measured from the cell monolayer and (FIG. 7B, 7E) MMP-13 and (FIG. 7C, 7F) PGE2 proteins were measured from the conditioned media. Groups not sharing a letter (A, B or C over bar) are statistically significant using an alpha=0.05.
# as §1
# as §2, with “nm. […]” for “nm.”
# [5] = system: articular chondrocytes; test: miR-122 / miR-451 transfection of articular chondrocytes in presence and absence of IL-1β; type: cell-based, rat; conditions: no IL-1β
# Text: The following Examples with these microRNAs established their functions in articular chondrocytes in the presence and absence of the inflammatory cytokine IL-1β. Since IL-1β signaling is a major contributor of OA, a well-established model of creating an osteoarthritic phenotype in vitro is to stimulate cell cultures with this cytokine. This study first established that both these microRNAs were elevated in OA in the bilateral ACLT model.
# The miR-451 miR (SEQ ID NO:10) was originally chosen as a control miR but it had surprising and very specific functions. […] A series of transfections and inhibition experiments with these microRNAs confirmed that these changes were due to the microRNAs themselves.
# [6] = compound alone, increasing concentrations, no IL-1β
molecule,measurement,setting,value
"Oc1nc(-c2ccc(C(F)(F)F)cc2)nc2c1CSCC2 [XAV, XAV-939]",MMP-13 production,[1]; [6],no differences in MMP-13 or PGE2 production
same,PGE2 production,[1]; [6],no differences in MMP-13 or PGE2 production
same,MMP-13 production,[1]; compound plus 10 ng/mL IL-1β,synergist increases in both MMP-13 and PGE2
same,PGE2 production,[1]; compound plus 10 ng/mL IL-1β,synergist increases in both MMP-13 and PGE2
same,total DNA,[1]; compound plus 10 ng/mL IL-1β,slight decrease in total DNA
same,MMP-13 production,[2]; 0.5 μM XAV plus 10 ng/mL TNF-α,decreased the TNF-α-stimulated increase in MMP-13
same,MMP-13 production,[2]; 1 μM XAV plus 10 ng/mL TNF-α,this effect was not present
same,MMP-13 production,"[2]; compound alone, no TNF-α",did not change MMP-13 production compared to control levels
same,PGE2 production,"[2]; compound alone, no TNF-α",caused increases in both the 0.5 μM and 1 μM XAV groups
same,PGE2 production,[2]; compound plus 10 ng/mL TNF-α,acted synergistically
IL-1β: inflammatory cytokine (Peprotech) used to stimulate chondrocyte cultures,MMP-13 production (conditioned media),[3],An increase was seen in MMP-13 production
same,PGE2 production (conditioned media),[3],significantly increased PGE2 production compared to control levels
TNF-α,MMP-13 production (conditioned media),[3],significant increase in MMP-13 production compared to both IL-1β treated and control groups
same,PGE2 production (conditioned media),[3],significantly increased PGE2 production compared to control levels
"miR-122: mirVana miRNA mimic rno-miR-122-5p; UGGAGUGUGACAAUGGUGUUUG (UGGAGUGUGACAAUGGUGUUUG; listed as RNA, chemistry not given here)",MMP-13 production after mimic transfection,[4],prevented the TNF-α-stimulated increase in MMP-13 production
same,PGE2 production after mimic transfection,[4],did decrease PGE2 production compared to the TNF-α stimulated control
"miR-451: mirVana miRNA mimic rno-miR-451-5p; AAACCGUUACCAUUACUGAGUU (AAACCGUUACCAUUACUGAGUU; listed as RNA, chemistry not given here)",MMP-13 production after mimic transfection,[4],did not change MMP-13 or PGE2 levels
same,PGE2 production after mimic transfection,[4],did not change MMP-13 or PGE2 levels
same,MMP-13 and PGE2 production in the absence of IL-1β,[5],did not encourage these responses
